Test results from patent publication US7619094B2, “Ketoamides with cyclic P4's as inhibitors of NS3 serine protease of hepatitis C virus” (Schering Corporation, priority 2004, dated 2009).

molecular target: Recombinant heterodimeric HCV NS3/NS4A protease (strain 1a) (Hepatitis C virus genotype 1a, UniProt P27958); assay: HCV continuous assay (spectrophotometric HCV NS3/NS4A serine protease inhibition assay); format: biochemical, HCV (strain 1a); details: Table 1; ranges of Ki* values in HCV continuous assay

Row | Compound | Ki [nM]
1 | C=CCNC(=O)C(=O)C(CC1CC1)NC(=O)[C@@H]1[C@@H]2[C@H](CN1C(=O)[C@@H](NC(=O)N[C@H](CN1Cc3ccccc3S1(=O)=O)C(C)(C)C)C1(C)CCCCC1)C2(C)C (some centres unmarked) [Compound 5257] | ≤ 50
2 | CN1CCCN(C[C@@H](NC(=O)N[C@H](C(=O)N2C[C@H]3[C@@H]([C@H]2C(=O)NC(CC2CC2)C(=O)C(N)=O)C3(C)C)C2CCCCC2)C(C)(C)C)S1(=O)=O (some centres unmarked) [Compound 5243] | ≤ 50
3 | C=CCNC(=O)C(=O)C(CCCC)NC(=O)[C@@H]1[C@@H]2[C@H](CN1C(=O)[C@@H](NC(=O)N[C@H](CN1Cc3sccc3S1(=O)=O)C(C)(C)C)C(C)(C)C)C2(Cl)Cl (some centres unmarked) [Compound 5252] | ≤ 50
4 | C=CCNC(=O)C(=O)C(CCCC)NC(=O)[C@@H]1[C@@H]2[C@H](CN1C(=O)[C@@H](NC(=O)N[C@H](CN1CCCN(C)S1(=O)=O)C(C)(C)C)C(C)(C)C)C2(C)C (some centres unmarked) [Compound 5132] | ≤ 50
5 | C=CCNC(=O)C(=O)C(CCC)NC(=O)[C@@H]1[C@@H]2[C@H](CN1C(=O)[C@@H](NC(=O)N[C@H](CN1CCCCS1(=O)=O)C1CCCCC1)C(C)(C)C)C2(C)C (some centres unmarked) [Compound 5224] | ≤ 50
6 | CCCC(NC(=O)[C@@H]1[C@@H]2[C@H](CN1C(=O)[C@@H](NC(=O)N[C@H](CN1CCCS1(=O)=O)C(C)(C)C)C(C)(C)C)C2(C)C)C(=O)C(=O)NCC (some centres unmarked) [Compound 5123] | ≤ 50
7 | CNC(=O)C(=O)C(CC1CC1)NC(=O)[C@@H]1[C@@H]2[C@H](CN1C(=O)[C@@H](NC(=O)N[C@H](CN1CCCS1(=O)=O)C(C)(C)C)C1CCCCC1)C2(C)C (some centres unmarked) [Compound 5142] | ≤ 50
8 | CC(C)(C)[C@H](NC(=O)N[C@H](CN1CCNS1(=O)=O)C(C)(C)C)C(=O)N1C[C@H]2[C@@H]([C@H]1C(=O)NC(CC1CC1)C(=O)C(N)=O)C2(C)C (some centres unmarked) [Compound 5149] | ≤ 50
9 | C=CCNC(=O)C(=O)C(CC1CC1)NC(=O)[C@@H]1[C@@H]2[C@H](CN1C(=O)[C@@H](NC(=O)N[C@H](CN1Cc3sccc3S1(=O)=O)C(C)(C)C)C1(C)CCCCC1)C2(C)C (some centres unmarked) [Compound 5261] | ≤ 50
10 | CCCCC(NC(=O)[C@@H]1[C@@H]2[C@H](CN1C(=O)[C@@H](NC(=O)N[C@H](CN1CCCCS1(=O)=O)C(C)(C)C)C(C)(C)C)C2(C)C)C(=O)C(N)=O (some centres unmarked) [Compound 5200] | ≤ 50
11 | CN1CCCN(C[C@@H](NC(=O)N[C@H](C(=O)N2C[C@H]3[C@@H]([C@H]2C(=O)NC(CC2CCC2)C(=O)C(N)=O)C3(C)C)C2CCCCC2)C(C)(C)C)S1(=O)=O (some centres unmarked) [Compound 5244] | ≤ 50
12 | CNC(=O)C(=O)C(CCC(F)(F)F)NC(=O)[C@@H]1[C@@H]2[C@H](CN1C(=O)[C@@H](NC(=O)N[C@H](CN1CCN(C)S1(=O)=O)C(C)(C)C)C(C)(C)C)C2(C)C (some centres unmarked) [Compound 5166] | ≤ 50
13 | C=CCNC(=O)C(=O)C(CCC)NC(=O)[C@@H]1[C@@H]2[C@H](CN1C(=O)[C@@H](NC(=O)N[C@H](CN1Cc3ccccc3S1(=O)=O)C(C)(C)C)C(C)(C)C)C2(C)C (some centres unmarked) [Compound 5171] | ≤ 50
14 | CNC(=O)C(=O)C(CC1CC1)NC(=O)[C@@H]1[C@@H]2[C@H](CN1C(=O)[C@@H](NC(=O)N[C@H](CN1CCN(C(C)C)S1(=O)=O)C(C)(C)C)C(C)(C)C)C2(C)C (some centres unmarked) [Compound 5220] | ≤ 50
15 | CC(C)(C)[C@H](NC(=O)N[C@H](CN1CCCS1(=O)=O)C(C)(C)C)C(=O)N1C[C@H]2[C@@H]([C@H]1C(=O)NC(CC1CC1)C(=O)C(N)=O)C2(C)C (some centres unmarked) [Compound 5113] | ≤ 50
16 | C=CCNC(=O)C(=O)C(CCC)NC(=O)[C@@H]1[C@@H]2[C@H](CN1C(=O)[C@@H](NC(=O)N[C@H](CN1C(=O)c3ccccc3S1(=O)=O)C(C)(C)C)C(C)(C)C)C2(C)C (some centres unmarked) [Compound 5162] | ≤ 50
17 | C=CCNC(=O)C(=O)C(CC1CCC1)NC(=O)[C@@H]1[C@@H]2[C@H](CN1C(=O)[C@@H](NC(=O)N[C@H](CN1CCCCS1(=O)=O)C1CCCCC1)C(C)(C)C)C2(C)C (some centres unmarked) [Compound 5234] | > 50
18 | C=CCNC(=O)C(=O)C(CC1CCC1)NC(=O)[C@@H]1[C@@H]2[C@H](CN1C(=O)[C@@H](NC(=O)N[C@H](CN1CCCCS1(=O)=O)C(C)(C)C)C1CCCCC1)C2(C)C (some centres unmarked) [Compound 5182] | ≤ 50
19 | CN1CCN(C[C@@H](NC(=O)N[C@H](C(=O)N2C[C@H]3[C@@H]([C@H]2C(=O)NC(CC2CCC2)C(=O)C(N)=O)C3(C)C)C(C)(C)C)C(C)(C)C)S1(=O)=O (some centres unmarked) [Compound 5146] | ≤ 50

same assay, conditions: Table 2; ranges of Ki* values in HCV continuous assay

Row | Compound | Ki [nM]
20 | CCCCC(NC(=O)[C@@H]1[C@@H]2[C@H](CN1C(=O)[C@@H](NC(=O)N[C@H](CN1CCCCC1=O)C(C)(C)C)C1Cc3ccccc3C1)C2(C)C)C(=O)C(=O)NCC (some centres unmarked) [Compound 5791] | ≤ 50
21 | C=CCNC(=O)C(=O)C(CC1CC1)NC(=O)[C@@H]1[C@@H]2[C@H](CN1C(=O)[C@@H](NC(=O)N[C@H](CN1CCCCC1=O)C(C)(C)C)C1(C)CCCCC1)C2(C)C (some centres unmarked) [Compound 5782] | ≤ 50
22 | CC(C)(C)[C@H](NC(=O)N[C@H](CN1C(=O)c2cc[n+]([O-])cc2C1=O)C(C)(C)C)C(=O)N1C[C@H]2[C@@H]([C@H]1C(=O)NC(CC1CC1)C(=O)C(N)=O)C2(C)C (some centres unmarked) [Compound 5773] | ≤ 50
23 | C=CCNC(=O)C(=O)C(CC1CCC1)NC(=O)[C@@H]1[C@@H]2[C@H](CN1C(=O)[C@@H](NC(=O)N[C@H](CN1CCCCC1=O)C(C)(C)C)C(C)(C)C)C2(C)C (some centres unmarked) [Compound 5642] | ≤ 50
24 | C=CCNC(=O)C(=O)C(CC1CC1)NC(=O)[C@@H]1[C@@H]2[C@H](CN1C(=O)[C@@H](NC(=O)N[C@H](CN1C(=O)CC(C)(C)CC1=O)C(C)(C)C)C(C)(C)C)C2(C)C (some centres unmarked) [Compound 5754] | ≤ 50
25 | C=CCNC(=O)C(=O)C(CCC)NC(=O)[C@@H]1[C@@H]2[C@H](CN1C(=O)[C@@H](NC(=O)N[C@H](CN1C(=O)CC3(CCCC3)CC1=O)C(C)(C)C)C1(C)CCCCC1)C2(C)C (some centres unmarked) [Compound 5794] | ≤ 50
26 | C=CCNC(=O)C(=O)C(CCCC)NC(=O)[C@@H]1[C@@H]2[C@H](CN1C(=O)[C@@H](NC(=O)N[C@H](CN1Cc3ccccc3C1=O)C(C)(C)C)C1CCCCC1)C2(C)C (some centres unmarked) [Compound 5765] | ≤ 50
27 | CC(C)(C)[C@H](NC(=O)N[C@H](CN1CCCNC1=O)C(C)(C)C)C(=O)N1C[C@H]2[C@@H]([C@H]1C(=O)NC(CC1CC1)C(=O)C(N)=O)C2(C)C (some centres unmarked) [Compound 5667] | ≤ 50
28 | C#CCCC(NC(=O)[C@@H]1[C@H]2CC(C)(C)O[C@H]2CN1C(=O)[C@@H](NC(=O)N[C@H](CN1CCCCC1=O)C(C)(C)C)C1CCCCC1)C(=O)C(=O)NCC=C (some centres unmarked) [Compound 5779] | ≤ 50
29 | CCCC(NC(=O)[C@@H]1[C@@H]2[C@H](CN1C(=O)[C@@H](NC(=O)N[C@H](CN1CCCCC1=O)C(C)(C)C)C(C)(C)C)C2(C)C)C(=O)C(=O)NC1CC1 (some centres unmarked) [Compound 5735] | ≤ 50
30 | C=CCNC(=O)C(=O)C(CCCC)NC(=O)[C@@H]1[C@@H]2[C@H](CN1C(=O)[C@@H](NC(=O)N[C@H](CN1CCCCC1=O)C(C)(C)C)C1(C)CCCCC1)C2(C)C (some centres unmarked) [Compound 5781] | ≤ 50
31 | C=CCNC(=O)C(=O)C(CCC)NC(=O)[C@@H]1[C@@H]2[C@H](CN1C(=O)[C@@H](NC(=O)N[C@H](CN1C(=O)CCCC1=O)C(C)(C)C)C(C)(C)C)C2(C)C (some centres unmarked) [Compound 5671] | ≤ 50
32 | CCCCC(NC(=O)[C@@H]1[C@@H]2[C@H](CN1C(=O)[C@@H](NC(=O)N[C@H](CN1Cc3ccccc3C1=O)C(C)(C)C)C1CCCCC1)C2(C)C)C(=O)C(=O)NCC (some centres unmarked) [Compound 5767] | ≤ 50
33 | C=CCNC(=O)C(=O)C(CCC)NC(=O)[C@@H]1[C@@H]2[C@H](CN1C(=O)[C@@H](NC(=O)N[C@H](CN1C(=O)c3cc[n+]([O-])cc3C1=O)C(C)(C)C)C(C)(C)C)C2(C)C (some centres unmarked) [Compound 5770] | ≤ 50
34 | CC(C)(C)[C@H](NC(=O)N[C@H](CN1C(=O)CCC1=O)C(C)(C)C)C(=O)N1C[C@H]2[C@@H]([C@H]1C(=O)NC(CC1CCC1)C(=O)C(N)=O)C2(C)C (some centres unmarked) [Compound 5639] | ≤ 50
35 | CCCC(NC(=O)[C@@H]1[C@@H]2[C@H](CN1C(=O)[C@@H](NC(=O)N[C@H](CN1CCCCC1=O)C(C)(C)C)C1(C)CCCCC1)C2(C)C)C(=O)C(=O)NC1CC1 (some centres unmarked) [Compound 5792] | ≤ 50
36 | CCC[C@H](NC(=O)[C@@H]1[C@@H]2[C@H](CN1C(=O)[C@@H](NC(=O)N[C@H](CN1C(=O)CC(C)(C)CC1=O)C(C)(C)C)C(C)(C)C)C2(C)C)C(=O)C(=O)NC1CC1 [Compound 5806] | ≤ 50
37 | C=CCNC(=O)C(=O)C(CCCC)NC(=O)[C@@H]1[C@@H]2[C@H](CN1C(=O)[C@@H](NC(=O)N[C@H](CN1C(=O)CC(C)(C)CC1=O)C(C)(C)C)C1(C)CCCCC1)C2(C)C (some centres unmarked) [Compound 5802] | ≤ 50
38 | C=CCNC(=O)C(=O)C(CC1CC1)NC(=O)[C@@H]1[C@@H]2[C@H](CN1C(=O)[C@@H](NC(=O)N[C@H](CN1Cc3ccccc3C1=O)C(C)(C)C)C1CCCCC1)C2(C)C (some centres unmarked) [Compound 5768] | ≤ 50
39 | C=CCNC(=O)C(=O)C(CC1CC1)NC(=O)[C@@H]1[C@@H]2[C@H](CN1C(=O)[C@@H](NC(=O)NC1(CN3C(=O)c4ccccc4C3=O)CCCCC1)C(C)(C)C)C2(C)C (some centres unmarked) [Compound 5679] | > 50
40 | C=CCNC(=O)C(=O)C(CC1CCC1)NC(=O)[C@@H]1[C@@H]2[C@H](CN1C(=O)[C@@H](NC(=O)N[C@H](CN1C(=O)COCC1=O)C(C)(C)C)C(C)(C)C)C2(C)C (some centres unmarked) [Compound 5694] | ≤ 50
41 | C=CCNC(=O)C(=O)C(CCC)NC(=O)[C@@H]1[C@@H]2[C@H](CN1C(=O)[C@@H](NC(=O)N[C@H](CN1CCCCC1=O)C(C)(C)C)C1(C)CCCCC1)C2(C)C (some centres unmarked) [Compound 5783] | ≤ 50
42 | C=CCNC(=O)C(=O)C(CC1CCC1)NC(=O)[C@@H]1[C@@H]2[C@H](CN1C(=O)[C@@H](NC(=O)N[C@H](CN1C(=O)CC(C)(C)CC1=O)C(C)(C)C)C(C)(C)C)C2(C)C (some centres unmarked) [Compound 5755] | ≤ 50
43 | C=CCNC(=O)C(=O)C(CCCC)NC(=O)[C@@H]1[C@@H]2[C@H](CN1C(=O)[C@@H](NC(=O)N[C@H](CN1C(=O)CCCC1=O)C(C)(C)C)C1(C)CCCCC1)C2(C)C (some centres unmarked) [Compound 5798] | ≤ 50
44 | C=CCNC(=O)C(=O)C(CCC)NC(=O)[C@@H]1[C@@H]2[C@H](CN1C(=O)[C@@H](NC(=O)N[C@H](CN1Cc3ccccc3C1=O)C(C)(C)C)C(C)(C)C)C2(C)C (some centres unmarked) [Compound 5742] | > 50

same assay, conditions: Table 4; Ki* values

Row | Compound | Ki [nM]
45 | C=CCNC(=O)C(=O)C(CC1CC1)NC(=O)[C@@H]1[C@@H]2[C@H](CN1C(=O)[C@@H](NC(=O)N[C@H](CN1C(=O)CC(C)(C)CC1=O)C(C)(C)C)C(C)(C)C)C2(C)C (some centres unmarked) [Compound 5754] | 4
46 | C=CCNC(=O)C(=O)C(CCCC)NC(=O)[C@@H]1[C@@H]2[C@H](CN1C(=O)[C@@H](NC(=O)N[C@H](CN1CCCCC1=O)C(C)(C)C)C1(C)CCCCC1)C2(C)C (some centres unmarked) [Compound 5781] | 9
47 | C=CCNC(=O)C(=O)C(CC1CCC1)NC(=O)[C@@H]1[C@@H]2[C@H](CN1C(=O)[C@@H](NC(=O)N[C@H](CN1C(=O)CC(C)(C)CC1=O)C(C)(C)C)C(C)(C)C)C2(C)C (some centres unmarked) [Compound 5755] | 7
